Assay results from PubChem BioAssay AID624418 (National Center for Advancing Translational Sciences (NCATS), 2012).
The campaign covered roughly 410,000 compounds. About 530 (0.13%) were called active. Inconclusive means that the source gave no clear call. Such entries were picked first, then a sample of the others. Calls follow the shape of the dose curve; as a rule, active = well fitted inhibition curve with a large enough effect; inconclusive = small, poorly fitted or top-dose-only effect, or another doubt; inactive = no such curve, though single readings can be large or run the other way. Potencies beside an inconclusive call are fits to weak or partial responses and may not hold up.

Experiment: qHTS of GLP-1 Receptor Inverse Agonists: Cytotox Screen
Conditions: HEK293 cAMP-luciferase reporter cells, luminescence, 24 h; activity change, negative = inhibition: at 38.3 µM (top of the series) unless noted
Summary of the method: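 Seeding density was 200 cells/uL; after overnight-length (12 h) culture, 23 nL compounds went on for 24 h at 37 °C. Readout used a luciferase detection reagent, luminescence taken after 12 min at room temperature.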
% is scaled to controls: 0 for no effect and ±100 for the full control effect; potency is read from the fitted curve at half-maximal effect.

Row | Compound | Potency | activity change, negative = inhibition
1 | COc1cc(-c2nc(-c3cccc(Cl)c3)c(-c3ccccc3)[nH]2)cc(OC)c1OC | inconclusive: 28.2 µM [inhibitor, single point] | 
2 | O=C(Nc1cc(Cl)cc(Cl)c1)c1ccc(F)c(S(=O)(=O)NC2CCCCC2)c1 | inconclusive: 28.2 µM [inhibitor, single point] | 
3 | CCOC(=O)c1c(CN2CCCCC2)oc2ccc(O)cc12 |  | inactive: -15.1%
4 | CCc1cccc(C)c1NC(=O)Cn1ccn(Cc2ccc(Cl)cc2)c(=O)c1=O |  | inactive: 4.58%
5 | CCc1ccc(-c2nc(CS(=O)CC(=O)NCc3ccccc3)c(C)o2)cc1 (configuration not stated) |  | inactive: -13.9%
6 | O=S(=O)(NCCSc1nnc(-c2ccco2)n1-c1ccccc1)c1ccccc1 |  | inactive: -20.2%
7 | Cc1ccc(NC(=O)CCNS(=O)(=O)c2cc(Br)cnc2N)cc1Cl | inconclusive: 11.2 µM [inhibitor, single point] | 
8 | COc1ccc(Cc2nnc(N/N=C(\C)c3ccccc3)[nH]c2=O)cc1OC | inconclusive: 15.8 µM [inhibitor, single point] | 
9 | O=[N+]([O-])c1cc([N+](=O)[O-])c2cccnc2c1Oc1ccccc1O | inconclusive: 10 µM [inhibitor, partial curve, poor fit] | 
10 | COc1ccc(CCNC(=O)c2ccccc2NC(=O)CN2CCN(c3ccccc3O)CC2)cc1 | inconclusive: 28.2 µM [inhibitor, single point] | 
11 | O=C(Cn1sc2ccccc2c1=O)Nc1ccccc1 | inconclusive: 7.94 µM [inhibitor, partial curve, poor fit] | 
12 | Cc1ccc(OS(=O)(=O)c2ccccc2)c(/C=N/N=C2\NC(=O)C(C)S2)c1 (configuration not stated) | inconclusive: 28.2 µM [inhibitor, single point] | 
13 | Cc1ccccc1/C=C/c1cccc[n+]1C | inconclusive: 10 µM [inhibitor, partial curve, poor fit] | 
14 | Oc1ccc(CN2CCCCC2)c2cccnc12 | inconclusive: 3.55 µM [inhibitor, full curve, poor fit] | 
15 | O=c1[nH]nc(SCCS(=O)(=O)c2ccc(F)cc2)n1-c1ccc2c(c1)OCCO2 | inconclusive: 11.2 µM [inhibitor, partial curve, poor fit] | 
16 | O=C(O)c1cc(-c2ccc(/C=C3/SC(=S)N(Cc4ccccc4)C3=O)o2)ccc1Cl |  | inactive: -4.92%
17 | COc1cccc(C(O)c2ncc(-c3ccccc3Cl)[nH]2)c1 (configuration not stated) | inconclusive: 28.2 µM [inhibitor, single point] | 
18 | Cc1ccccc1CN1CCc2c(OCC(=O)N3CCCc4ccccc43)cccc2C1=O |  | inactive: -16.2%
19 | CCN(CC)C(=O)CC(c1ccc(N(C)C)cc1)c1c(O)cc(OC)cc1OC (configuration not stated) | inconclusive: 28.2 µM [inhibitor, single point] | 
20 | COC(=O)c1ccccc1NC(=O)CSc1nc(-c2ccco2)cc(C(F)(F)F)n1 | inconclusive: 3.55 µM [inhibitor, full curve, poor fit] | 
21 | O=C(Nc1cccc(-c2nnc(-c3ccccc3)o2)c1)c1ccc(Br)o1 | inconclusive: 28.2 µM [inhibitor, single point] | 
22 | COc1ccc(C(=O)O/N=C(\N)Cc2cccs2)cc1OC | inconclusive: 12.6 µM [inhibitor, partial curve, poor fit] | 
23 | COc1ccc2nc(NC(=O)CSC3=NCCS3)sc2c1 | inconclusive: 22.4 µM [inhibitor, single point] | 

Row | Compound | Potency | activity change, negative = inhibition
24 | Cn1c(CNC(=O)c2ccc(Cl)cc2)nnc1SCC(=O)NC1=NCCS1 | inconclusive: 28.2 µM [inhibitor, single point] | 
25 | Cc1ccc(NS(=O)(=O)c2ccccc2)c([N+](=O)[O-])c1 |  | inactive: 0.0369%
26 | CC(C)(C)C(=O)/C=c1\[nH]c(=O)/c(=C\c2ccc(F)cc2)s1 | inconclusive: 10 µM [inhibitor, partial curve] | 
27 | CC12CCC(=O)C=C1CCC1C2CCC2(C)C(c3csc(N)n3)CCC12 (configuration not stated) | inconclusive: 31.6 µM [inhibitor, partial curve, poor fit] | 
28 | CC(C)(C)c1ccc(C(=O)O/N=C(\N)c2ccccn2)cc1 | inconclusive: 8.91 µM [inhibitor, partial curve, poor fit] | 
29 | Cc1ccc(S(=O)(=O)N2c3ccccc3-c3c(ssc3=S)C2(C)C)cc1 | inconclusive: 28.2 µM [inhibitor, single point] | 
30 | COc1ccc(CNC(=O)CSc2n[nH]c(-c3ccc(OC)cc3)n2)cc1 | inconclusive: 6.31 µM [inhibitor, partial curve, poor fit] | 
31 | O=C(c1ccco1)N1c2ccccc2Sc2ccccc21 |  | inactive: -8.91%
32 | C=CC(C)(C)c1c(O)c(CC=C(C)C)c(O)c2c(=O)c3ccc(O)c(O)c3oc12 | inconclusive: 11.2 µM [inhibitor, single point] | 
33 | CCOc1ccc(N(CC(=O)NC2CC3CCC2C3)S(=O)(=O)c2ccc(C)cc2)cc1 (configuration not stated) |  | inactive: 0.697%
34 | COc1cc(C(=O)ON=C2C3CC4CC(C3)CC2C4)cc(OC)c1OC | inconclusive: 20 µM [inhibitor, single point] | 
35 | FC(F)(F)c1nc2ccccc2n2c(-c3c(Cl)cccc3Cl)nnc12 | inconclusive: 31.6 µM [inhibitor, single point] | 
36 | Oc1ccc(N=Nc2ccccc2)o1 |  | inactive: -10.2%
37 | Cc1c(CCC(=O)O)c(=O)oc2cc3occ(-c4ccccc4)c3cc12 | inconclusive: 3.16 µM [inhibitor, partial curve, poor fit] | 
38 | CCOc1ccc(N=Cc2c(O)cc(C)oc2=O)cc1 | inconclusive: 12.6 µM [inhibitor, partial curve, poor fit] | 
39 | Cc1ccc(NC(=O)CC2=NC(=O)C(CC(=O)Nc3ccccc3C)S2)cc1 (configuration not stated) | inconclusive: 11.2 µM [inhibitor, single point] | 
40 | CC(C)(C)n1nnnc1C(c1ccc(Cl)cc1)N(Cc1cccnc1)Cc1ccco1 (configuration not stated) | inconclusive: 12.6 µM [inhibitor, single point] | 
41 | CCOc1ccc2nc(NS(=O)(=O)Cc3ccccc3)sc2c1 | inconclusive: 2.82 µM [inhibitor, full curve] | 
42 | CCc1nnc(NC(=O)c2ccc(S(=O)(=O)NC3CCCCC3)cc2)s1 | inconclusive: 1.58 µM [inhibitor, full curve, poor fit] | 
43 | O=[N+]([O-])c1nn(-c2ccc3c(c2)OCCO3)n(O)c1=NC1CCCCC1 |  | inactive: -11.4%
44 | O=C(NCC1COc2ccccc2O1)C1C2C=CC3(CN(Cc4cccs4)C(=O)C13)O2 (configuration not stated) | inconclusive: 28.2 µM [inhibitor, single point] | 
45 | Cc1cccc(NC(=O)[C@H](NC(=O)[C@@H]2Cc3ccccc3CN2)c2ccccc2)c1 | inconclusive: 28.2 µM [inhibitor, single point] | 
46 | CCOC(=O)N1CCN(S(=O)(=O)c2cc(OCC(N)=O)c(C)cc2Cl)CC1 |  | inactive: 5.36%

Row | Compound | Potency | activity change, negative = inhibition
47 | O=C(NC1CCCC1)C(c1ccccc1)N(C(=O)c1ccco1)C1CCCC1 (configuration not stated) | inconclusive: 12.6 µM [inhibitor, partial curve, poor fit] | 
48 | O=C(Nc1ccc(F)cc1)c1nc(S(=O)(=O)Cc2ccccc2)ncc1Cl | inconclusive: 5.01 µM [inhibitor, full curve, poor fit] | 
49 | CCOc1c(/C=C(\C#N)C(N)=O)c2ccccc2n1CC | inconclusive: 17.8 µM [inhibitor, partial curve, poor fit] | 
50 | CCN(C(=O)CN(C)S(=O)(=O)c1ccc2c(c1)n(C)c(=O)c(=O)n2C)c1cccc(C)c1 |  | inactive: 0.54%
51 | O=C1C(Cl)=C(NC(=O)c2ccccc2)C(=O)C(Cl)=C1NC(=O)c1ccccc1 |  | inconclusive: -115% [inhibitor]
52 | CC1CCCCN1CC(O)COc1ccc(OCC(O)CN2CCCCC2C)cc1 (configuration not stated) | inconclusive: 10 µM [inhibitor, single point] | 
53 | O=C(CNc1cccc(S(=O)(=O)N2CCCCC2)c1)Nc1ccccc1F | inconclusive: 31.6 µM [inhibitor, partial curve, poor fit] | 
54 | C#CCOc1c(Cl)cc(/C=C2/C(=O)ON=C2C)cc1OCC | inconclusive: 28.2 µM [inhibitor, single point] | 
55 | COCc1cc(C)nc2sc(C(=O)NN)c(-n3cccc3)c12 |  | inactive: 20.2%
56 | COc1ccccc1CNC(=O)c1sccc1-c1ccccc1 |  | inactive: 4.34%
57 | Cc1ccc(C(=O)N(Cc2nc3ccccc3c(=O)[nH]2)C2CCCC2)cc1 |  | inactive: -22.4%
58 | Cn1c(/C=C/c2ccc(Br)cc2)c([N+](=O)[O-])c(=O)n(C)c1=O | inconclusive: 28.2 µM [inhibitor, single point] | 
59 | Nc1[nH][nH]c(=O)c1N=Nc1ccccc1 | inconclusive: 28.2 µM [inhibitor, single point] | 
60 | COc1ccc(Cl)cc1NC(=O)c1cc(S(=O)(=O)N2CCc3ccccc32)cn1C |  | inactive: 2.77%
61 | O=C(COn1nnc2ccc(S(=O)(=O)N3CCOCC3)cc21)NCCc1ccccc1 |  | inactive: 14.9%
62 | Cc1cc(C)cc(NS(=O)(=O)c2csc(C(N)=O)c2)c1 |  | inactive: -1.65%
63 | Cc1ccc(C2=NOC(C)(c3nnc(-c4ccc(Cl)cc4)o3)C2)cc1 (configuration not stated) |  | inactive: -12.7%
64 | Cc1cc(SCC(=O)c2ccc(O)c(O)c2)n2nc(C)c(-c3ccccc3)c2n1 | inconclusive: 7.94 µM [inhibitor, partial curve] | 
65 | CSc1ccc(CN(C)C(=O)C(Cc2ccccc2)NC(=O)c2ccccc2)cc1 (configuration not stated) | inconclusive: 12.6 µM [inhibitor, single point] | 
66 | CC(C)(C)Sc1ccc2nc3c(n2c1)CCCC3 | inconclusive: 12.6 µM [inhibitor, single point] | 
67 | CC(=O)Nc1ccc(Nc2cc(C)nc3c(-c4ccc(Cl)cc4)c(C)nn23)cc1 |  | inactive: -17.7%
